Molecules are shown by their SMILES. Where “and” joins values, the source holds several entries; their conditions need not be identical. Identical values can stand only once.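 Cells were grown in 96-well plates and exposed to each compound for 48 hours at five concentrations; endpoints were interpolated linearly between bracketing concentrations, or set to the highest concentration if not reached. GI50 marks 50% less growth.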 Calls of active or inactive are those of the source. Cut-off read from the data, not from the text of the source: active = GI50 up to about 1.1 µM and inactive = higher.

Here are results for 81 molecules from ChEMBL document CHEMBL1201862, “PubChem BioAssay data set” (2004).

This assay has as its system NCI-H322M. As to the kind of experiment: inhibition of tumour cell growth, NCI panel, 48 h.
For the molecule `CC1=CCC[C@H]2[C@](C)(CC3=CC(=O)C(Sc4ccccc4)=CC3=O)[C@@H](C)CC[C@]12C`, the GI50 was inactive: 17 µM.
Under `O=C(O)c1nc2nc(Cl)c(Cl)nc2[nH]1` stands inactive: > 100 µM; under `CN(C(=O)c1cccs1)C(=S)N1CCN(c2ccccc2)CC1`, inactive: > 100 µM; under `CC(C)=CCC/C(C)=C\CCC1(C)OC(=O)C2CC21` (stereo unspecified), inactive: > 100 µM.
Regarding `CO[C@@]12C[C@@H](C)[C@]34O[C@H]3C[C@]3(C)O[C@]43CC1=C(C)C(=O)O2`, the GI50 is inactive: > 100 µM.
`CC(=O)OC(C)(C)/C=C/C(=O)[C@](C)(O)[C@H]1[C@H](O)C[C@@]2(C)[C@@H]3CC=C4[C@@H](C[C@H](O)[C@H](O)C4(C)C)[C@]3(C)C(=O)C[C@]12C`: the GI50 is active: 1.09 µM.
As to `O=C(CC1(O)C(=O)Nc2c(Cl)ccc(Cl)c21)c1ccc2ccccc2c1` (stereo unspecified), the GI50 was inactive: 18.8 µM.
In the case of `COC(=O)C1C(=O)N(C)C(=O)N2CCCC12` (stereo unspecified), the GI50 is inactive: > 100 µM.
As to `CC(C)(CN1CCCCC1)C(=O)/C=C/c1ccc(Br)cc1`, the GI50 was inactive: 3.48 µM.
For `C(=N\CCCN1CCN(CCC/N=C/c2cccc3ccccc23)CC1)/c1cccc2ccccc12` the value was inactive: > 100 µM; for `NNC(=O)CC(=O)Nc1ccccc1Cl`, inactive: > 100 µM.
Consider `CCOC(=O)[C@@H]1C[C@H]1c1ccc(O)c(O)c1`, for which the GI50 is inactive: 79.1 µM.
As to `CSC(C1c2ccccc2N(C)C2=NC(=O)N(C)C(=O)C21Cl)S(=O)(=O)c1ccc(C)cc1` (stereo unspecified), the GI50 is inactive: > 100 µM.
With `CN(C)CC(C)(C)CN1c2ccccc2Sc2ccccc21`, the GI50 is inactive: 15.5 µM.
In the case of `OCC1(CNc2cc(Cl)ncn2)CCC1`, the GI50 is inactive: > 100 µM.
As for `CCCCCCCCCC(=O)CC(=O)c1c(O)cc(O)cc1O`, the GI50 was inactive: 33.7 µM.
For `COC(=O)CN(CC1O[C@@H]2OC(C)(C)O[C@@H]2C1N=[N+]=[N-])C(=O)OCc1ccccc1` (stereo partly specified), the GI50 is inactive: > 100 µM.
On to `COc1ccc(/C=N/n2c(Cc3ccccc3)n[nH]c2=O)c(OC)c1`, for which the GI50 was inactive: > 60.5 µM.
Turning to `CC1(C)OB(O)OC1(C)C`, the GI50 is inactive: > 100 µM.
For `CCCCCCCCCCCCCCCCCCNc1ccn(C2OC(COP(=O)(O)O)C(O)C2O)c(=O)n1` (stereo unspecified) the value was inactive: > 100 µM.
`COC(=O)[C@H](Cc1ccccc1)NP(=O)(O)OCC1OC(n2cc(C)c(=O)[nH]c2=O)CC1N=[N+]=[N-]` (stereo partly specified): the GI50 is inactive: > 100 µM.
As for `CC12CCC(CC1=O)C2(C)CCC(N)=O` (stereo unspecified), the GI50 was inactive: > 100 µM.
`Clc1ccc(Cc2nc3cc4ccccc4cc3[nH]2)cc1Cl`: the GI50 was inactive: 23.7 µM.
Under `CCCCCCCC(=O)O[C@H]1[C@H]2[C@@H](CC1(C)C)C(=O)[C@]13O[C@H]1C(=O)[C@]1(CO1)[C@]23C` stands inactive: 16.9 µM; under `N#CC(C#N)=C1NC(=O)CC(=O)N1`, inactive: > 100 µM.
Consider `COc1ccc(NC(=S)c2ccoc2C)cc1CC(=O)OC(C)C`, for which the GI50 was inactive: > 100 µM.
For `COc1cc2c(cc1OC)CN1CCc3ccccc3CC1C2` (stereo unspecified) the value was inactive: 59.3 µM.
As for `O=C1C=C[C@@]23CC1C(O)C[C@H]2C=Cc1ccccc13` (stereo partly specified), the GI50 is inactive: > 100 µM.
As for `COc1cc(C=C2C(C)=NN(c3cccc(Cl)c3)C23C(Cl)C(=O)N3c2nc3ccccc3s2)ccc1O` (stereo unspecified), the GI50 was inactive: 19.5 µM.
Turning to `CCOC(=O)/C=C(\C(=O)OCC)n1ccc(=O)n(Cc2cn(COCCOC(C)=O)nn2)c1=O`, the GI50 was inactive: > 100 µM.
Regarding `C=CCn1c(-c2cc(C(C)(C)C)c(O)c(C(C)(C)C)c2)cs/c1=N\C(P(=O)(O)O)P(=O)(O)O`, the GI50 was inactive: > 100 µM.
For the molecule `Cc1cc(C)nc(NS(=O)(=O)c2ccc(Nc3c4ccccc4nc4c(C(=O)Nc5ccc(S(=O)(=O)Nc6cc(C)on6)cc5)ccc(Cl)c34)cc2)n1`, the GI50 was inactive: 18.6 µM.
Under `COc1ccc(/C(=N/O)c2ccccc2C2=Nc3ccccc3C(NCc3ccccc3)O2)cc1C` (stereo unspecified) stands inactive: > 100 µM; under `CNS(=O)(=O)NNS(=O)(=O)c1cccc([N+](=O)[O-])c1`, inactive: > 100 µM; under `O=Cc1c(O)c(C(=O)Nc2ccc3[nH]c(=O)[nH]c3c2)cc2ccccc12`, inactive: > 100 µM.
Consider `CN1C(=O)C2(Cc3cn(C45CC67SSC(CO)(C(=O)N6C4Nc4ccccc45)N(C)C7=O)c4ccccc34)SSC1(CO)C(=O)N2C` (stereo unspecified), for which the GI50 was active: 0.405 µM.
For `COC1CC(COCc2ccccc2)CC(OC)O1` (stereo unspecified), the GI50 is inactive: > 100 µM.
Turning to `Cc1cc(C(=O)CBr)c(CN2C(=O)c3ccccc3C2=O)c(=O)n1C`, the GI50 was inactive: 31.9 µM.
`CC(C)NC(=O)OCc1c(COC(=O)NC(C)C)c(-c2ccc[n+](COC(=O)Cc3ccccc3)c2)n2c1CCC2`: the GI50 is inactive: 54.6 µM.
As for `C=CCC1(C)CCCN(Cc2ccccc2)C1=O` (stereo unspecified), the GI50 was inactive: > 10 µM.
As for `C/C(=N\O)c1sc(-n2nc(-c3ccccc3)cc2-c2ccccc2)nc1C`, the GI50 is inactive: 19.2 µM.
For `CCn1c(O)c(C(=O)NC(C)c2ccc([N+](=O)[O-])cc2)c(=O)n(CC)c1=S` (stereo unspecified), the GI50 is inactive: 2.85 µM.
For `Cc1cn(C2CCC(CO)(CF)O2)c(=O)[nH]c1=O` (stereo unspecified), the GI50 is inactive: > 100 µM.
`COC1OC(COC(=O)NCCCCC(=O)C(F)(F)F)C(O)C(O)C1O` (stereo unspecified): the GI50 is inactive: > 100 µM.
As to `CN(c1c(Cl)cccc1Cl)S(=O)(=O)c1ccccc1[N+](=O)[O-]`, the GI50 is inactive: > 100 µM.
Regarding `O=c1[nH]cc(-c2c[nH]c3ccccc23)nc1-c1c[nH]c2ccccc12`, the GI50 was inactive: 15.6 µM.
On to `CC(CC(=O)Nc1ccc(NC(=O)CC(C)/N=N\C(N)=O)cc1)/N=N\C(N)=O` (stereo unspecified), for which the GI50 was inactive: > 100 µM.
In the case of `COc1ccc2c(c1)nc1n2C(c2c(F)cccc2Cl)SC1` (stereo unspecified), the GI50 was inactive: 22.6 µM.
Under `C[C@]12C(=O)OC[C@H](c3ccccc3)N1C(=O)N(Cc1ccccc1)[C@@H]2CO` stands inactive: > 100 µM; under `COc1ccc2c3ccc4c(c3n(C)c2c1)C(=O)C=CC4=O`, inactive: > 100 µM.
In the case of `CNC(=S)NN=C1NCCCN1`, the GI50 is inactive: > 100 µM.
Consider `COc1ccccc1/N=N/c1c(O)ccc2ccccc12`, for which the GI50 is inactive: 43.8 µM and inactive: 55.1 µM.
Under `COc1ccc(C(=O)O)c2c(=O)c3ccccc3[nH]c12` stands inactive: > 100 µM; under `COc1ccc(C(=O)c2c(-c3ccccc3NC(=O)C(F)(F)F)[nH]c3ccccc23)cc1`, inactive: 5.92 µM.
Consider `CC1=C(C(=O)O)N2C(=O)[C@@H](NC(=O)C(c3ccc(O)cc3)N3CSC(=S)N(C(C)C)C3)C2SC1` (stereo partly specified), for which the GI50 was inactive: > 100 µM.
Turning to `N/N=C1\C(=O)N(c2ccc(Cl)cc2Cl)C(=O)C(=O)C1c1nc2ccccc2o1` (stereo unspecified), the GI50 was inactive: > 100 µM.
As to `COc1ccc(C=C(c2ccc(OCc3ccccc3)cc2)c2ccc(OCc3ccccc3)cc2)cc1`, the GI50 is inactive: > 100 µM.
For `C[C@H]1CC[C@@]2(OC1)O[C@H]1C[C@H]3[C@@H]4CC[C@@H]5C[C@@H](OC6OC(CO)C(O)C(O)C6OC6OC(CO)C(O)C(O)C6O)CC[C@]5(C)[C@H]4CC[C@]3(C)[C@H]1[C@@H]2C` (stereo partly specified), the GI50 is inactive: 1.93 µM.
Under `Cc1nc(Cl)c(CBr)c(Cl)n1` stands inactive: 2 µM.
Consider `O=P1(Oc2ccccc2)N(CCCl)CCN1c1ccccc1` (stereo unspecified), for which the GI50 was inactive: > 100 µM.
On to `O=C1c2cscc2C(=O)C1(O)O`, for which the GI50 was inactive: > 100 µM.
For the molecule `CS(=O)(=O)c1ccc(COP(N)(=O)N(CCCl)CCCl)cc1` (stereo unspecified), the GI50 was inactive: > 100 µM.
For the molecule `OC1OC2COC(c3ccccc3)OC2C(O)C1O` (stereo unspecified), the GI50 is inactive: > 100 µM.
On to `CC(=O)NC(CCCCNC(=O)N(C)N=O)C(=O)NCc1ccccc1` (stereo unspecified), for which the GI50 is inactive: > 100 µM.
Take `CC1S/C(=N/c2nnc(-c3ccccc3)o2)NC1=O` (stereo unspecified): the GI50 is inactive: 40.2 µM.
With `CSc1nc(SC)c2c(C)c(Br)[nH]c2n1`, the GI50 is inactive: > 100 µM.
Regarding `Nc1ncnc2c1ncn2[C@H]1C=C[C@@H](NO)C1`, the GI50 is inactive: > 100 µM.
Take `COc1ccc(-c2cc(=O)c3cc(C)c(C)c(C(=O)O)c3o2)cc1`: the GI50 was inactive: > 100 µM.
Turning to `N#Cc1c(=O)c2ccccc2n2c1[nH]c1ccccc12`, the GI50 is inactive: 25 µM.
Consider `Nc1c(S(=O)(=O)c2ccc(Cl)cc2)c2nc3ccccc3nc2n2ccnc12`, for which the GI50 was inactive: 75.5 µM.
Take `CN1C2=C(CC3=C1CC(C)(C)CC3=O)C(=O)CC(C)(C)C2`: the GI50 is inactive: > 100 µM.
Under `O=c1c2cc(-c3ccccc3)cnc2sn1-c1ccc(Oc2ccccc2)cc1` stands inactive: 39.1 µM; under `CC1=C(C(=O)N(C(C)C)C(C)C)CC(C(=O)N(C(C)C)C(C)C)=C(C)N1`, inactive: > 100 µM; under `O=C(O)C[C@@H]1[C@@H](O)[C@@H](O)CN2C(=O)c3ccccc3[C@H]12`, inactive: > 100 µM.
As for `CCC1([N+](=O)[O-])CN(N=O)C1`, the GI50 was inactive: > 100 µM.
For `Cc1ccc([N+](=O)[O-])cc1NC1=NCCO1` the value was inactive: > 100 µM; for `COc1cc(/C=C/C(=O)N[C@@H]2C(=O)N3[C@@H]2SC(C)(C)[C@@H]3C(=O)O)ccc1O`, inactive: > 100 µM.
For `C[C@]12OC(=O)[C@]3(O)CC[C@H]4[C@@H](C[C@@H](O)[C@@]5(Cl)CC=CC(=O)[C@]45C)[C@]45OCC6C(=O)O[C@@H]1C[C@@]6(C)[C@H](C4=O)[C@@]32O5` (stereo partly specified) the value was inactive: 5.04 µM; for `COc1cc(C[C@@H](C)N)cc(OC)c1`, inactive: > 100 µM.
Regarding `O=C1C(=O)c2cc([N+](=O)[O-])ccc2-c2ccc([N+](=O)[O-])cc21`, the GI50 was inactive: 1.95 µM.
Consider `COc1cccc(/C=C/c2cc(OC)c(OC)c(OC)c2)c1`, for which the GI50 is inactive: 62.4 µM.
